# In PubChem BioAssay AID1030 (National Center for Advancing Translational Sciences (NCATS), 2008):
# The campaign covered roughly 220,000 compounds. About 16,000 (7.3%) were called active. Inconclusive means that the source gave no clear call. Such entries were picked first, then a sample of the others. The call rests on the fitted dose curve; in most records, active means well fitted inhibition curve with a large enough effect (not every such curve was filed as active); inconclusive means small, poorly fitted or top-dose-only effect, or another doubt; inactive means no such curve, though single readings can be large or run the other way. No potency is given beside an inconclusive call; the fits are too rough.
# Target: Aldehyde dehydrogenase 1A1 (Homo sapiens) (UniProt P00352)
# Sequence of UniProt P00352 (P00352 whole entry, looked up): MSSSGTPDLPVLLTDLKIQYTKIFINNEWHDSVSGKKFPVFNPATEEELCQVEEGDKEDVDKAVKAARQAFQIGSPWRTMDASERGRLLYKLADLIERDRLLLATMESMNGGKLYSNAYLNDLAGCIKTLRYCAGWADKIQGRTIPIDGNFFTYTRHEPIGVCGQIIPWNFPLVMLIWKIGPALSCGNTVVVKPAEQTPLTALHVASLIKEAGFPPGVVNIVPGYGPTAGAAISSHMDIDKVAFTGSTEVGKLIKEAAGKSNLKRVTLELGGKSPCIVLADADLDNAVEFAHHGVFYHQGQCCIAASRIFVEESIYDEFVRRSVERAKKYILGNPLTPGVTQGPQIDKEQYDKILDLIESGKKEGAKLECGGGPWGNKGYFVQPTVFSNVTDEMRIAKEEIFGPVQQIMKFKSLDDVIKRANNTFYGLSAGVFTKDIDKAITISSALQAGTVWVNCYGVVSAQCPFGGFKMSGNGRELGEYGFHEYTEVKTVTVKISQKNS
# Assay: qHTS Assay for Inhibitors of Aldehyde Dehydrogenase 1 (ALDH1A1)
# Conditions: Purified ALDH1A1, NADH fluorescence, propionaldehyde substrate; series mostly up to 75.3 µM
# Potency means the concentration at half of the fitted maximal effect; tags describe the fitted curve by direction and shape.
row,Structure (SMILES),Potency
1,O=C(CS(=O)(=O)Cc1ccccc1)N1CCN(C(=O)c2ccco2)CC1,"inconclusive [inhibitor, single point]"
2,CC(=O)N1CCN(CC(=O)Nc2c(Cl)cc(Cl)cc2Cl)CC1,"inconclusive [inhibitor, partial curve]"
3,NC(=NCCc1ccccc1)NS(=O)(=O)c1ccc2ccccc2c1,inactive
4,CCOC(=O)C1(CCOC)CCN(Cc2cnc(-c3cccc(C)c3)nc2)CC1,inactive
5,CCOc1ccc2nc(/N=C/c3c(C)[nH]n(-c4ccc(C)cc4)c3=O)sc2c1,inactive
6,CN(CC(=O)Nc1cc([N+](=O)[O-])ccc1Cl)Cc1ccc(Br)cc1,active: 10 µM
7,O=C1N/C(=C\c2ccc(O)cc2)C(=O)c2ccccc21,"inconclusive [inhibitor, partial curve]"
8,CCOc1ccccc1OCc1nn2c(-c3ccc(C)cc3)nnc2s1,"inconclusive [inhibitor, single point]"
9,O=C(O)c1c(Cl)c(Cl)c(Cl)c(Cl)c1-c1c2cc(I)c(=O)c(I)c-2oc2c(I)c(O)c(I)cc12,active: 31.6 µM
10,CC1(C)OC2OC(COC(=O)c3ccccc3)C3OC(C)(C)OC3C2O1 (stereo not given),"inconclusive [inhibitor, single point]"
11,CCCCCCC(C)OC(=O)c1ccccc1C(=O)O (stereo not given),inactive
12,CCN(CC)c1ccc(N)cc1,active: 3.16 µM
13,FC(F)Oc1ccccc1NC(=S)Nc1cccc(Cl)c1Cl,"inconclusive [inhibitor, single point]"
14,COc1ccc(/C=C2\CCCC3C2=NC(=S)NC3c2ccc(OC)cc2)cc1 (stereo not given),active: 8.91 µM
15,COC(=O)c1ccc(CNC(=O)COC(=O)c2cc(Cl)nc(Cl)c2)cc1,"inconclusive [inhibitor, single point]"
16,O=Cc1ccc(Oc2ccc(F)cc2)nc1,active: 15.8 µM
17,CCCc1c(C(=O)Nc2ccc(F)cc2C)cnn1-c1ccccc1,"inconclusive [inhibitor, single point]"
18,C=CCNC(=O)/C(=C\C=C\c1ccccc1)NC(=O)c1ccccc1Cl,"inconclusive [inhibitor, single point]"
19,COc1ccc(/C=C2\SC(=S)N(NC(=O)c3ccncc3)C2=O)cc1OC,inactive
20,CC(C)(C)Sc1ccc(N)nc1,inactive
21,Nc1nnnn1/N=C/c1cccc(O)c1,inactive
22,CC1(C)CC(=O)C2=C(C1)c1c(ccc3ncccc13)NC2c1cccs1 (stereo not given),"inconclusive [inhibitor, single point]"
23,O=C1CN(C(=O)COC(=O)Cc2ccsc2)c2ccccc2N1,inactive
24,CCCCc1ccc(N2C(=O)[C@@H]3C(CC(N)=O)NC4(C(=O)Nc5ccc(F)cc54)[C@@H]3C2=O)cc1 (stereo not given in full),active: 14.1 µM
25,COc1ccc(-c2ccc(CCC(=O)O)n2NC(=O)c2ccc(C(C)(C)C)cc2)cc1,active: 2.24 µM

row,Structure (SMILES),Potency
1,OCCn1c(SCCOc2ccccc2)nc2ccccc21,inactive
2,COC(=O)c1c(NC(=O)c2ccco2)sc(C(=O)N2CCCC2)c1C,active: 14.1 µM
3,COc1ccc(S(=O)(=O)N/N=C(/C)c2cccc(NC(=O)c3ccccc3Cl)c2)cc1,"inconclusive [inhibitor, single point]"
4,COc1ccc(C(C)=O)cc1COC(=O)c1ccc2c(c1)OCO2,active: 10 µM
5,Cn1cc(SCC(=O)NCc2ccc3c(c2)OCO3)c2ccccc21,"inconclusive [inhibitor, single point]"
6,O=C(CN(c1ccc(Cl)cc1)S(=O)(=O)c1ccc(Cl)c([N+](=O)[O-])c1)NCCc1ccccc1,active: 25.1 µM
7,COC(=O)N1CCC2(CC1)CN(C(=O)Nc1cccc(C#N)c1)C2,inactive
8,c1ccc(-c2cc3c(NCC4COc5ccccc5O4)ncnc3s2)cc1 (stereo not given),"inconclusive [inhibitor, single point]"
9,Cc1cccc(NC(=S)N2CCCCCC2)c1,"inconclusive [inhibitor, single point]"
10,Nc1nc2c3ccccc3nc(Cc3ccccc3)n2n1,"inconclusive [inhibitor, single point]"
11,N#C/C(=C\c1c(Cl)cccc1Cl)c1nc2ccccc2[nH]1,"inconclusive [inhibitor, single point]"
12,CC1=CSC2=NC(=O)/C(=C/c3cccc(OC(=O)c4ccco4)c3)C(=N)N12,"inconclusive [inhibitor, partial curve, poor fit]"
13,COC(=O)c1ccc(Oc2c(F)c(F)nc(N3CCOCC3)c2F)cc1,"inconclusive [inhibitor, single point]"
14,CC(=O)Nc1ccc(S(=O)(=O)N2CCN(c3cc(C(F)(F)F)ccn3)CC2)cc1,"inconclusive [inhibitor, single point]"
15,O=C1c2ccccc2C(=O)N1CCN1CCc2ccccc21,"inconclusive [inhibitor, single point]"
16,Cn1cccc1C(=O)N1CCC2(CCCN(c3ccc(-c4ccccc4)cc3)C2)CC1,"inconclusive [inhibitor, single point]"
17,O=C(CCC(=O)c1cccs1)OCC(=O)N1CCN(C(=O)c2ccco2)CC1,"inconclusive [inhibitor, single point]"
18,CCOC(=O)c1sc(NC(=O)CSc2ccccn2)c(C#N)c1C,active: 25.1 µM
19,CCOC(=O)c1cnc(SCc2nc(N)nc(Nc3ccccc3)n2)nc1N,inactive
20,O=C(Nc1ccc2c(c1)OCCO2)c1ccc(CN2CCOCC2)cc1,"inconclusive [inhibitor, partial curve]"
21,CCCCSc1nnc([C@H](C)NC(=O)OC(C)(C)C)o1,active: 22.4 µM
22,CC(C)CSC1=NSC2=NC(=O)/C(=C\c3coc4ccccc4c3=O)C(=N)N12,"inconclusive [inhibitor, partial curve]"
23,CCn1c(SCC(=O)N(C(C)C)C(C)C)nnc1-c1cc2ccccc2cc1O,"inconclusive [inhibitor, partial curve]"
24,CCOC(=O)c1cc2c(=O)n3ccccc3nc2n(CC2CCCO2)c1=NC(=O)/C=C/c1ccccc1 (stereo not given),"inconclusive [inhibitor, partial curve]"
25,Cc1cccc(-n2c3nc(=O)[nH]c(=O)c-3cc3c(C)nn(-c4ccccc4)c32)c1,"inconclusive [inhibitor, partial curve]"

row,Structure (SMILES),Potency
1,CCN1C=C(Cc2cccs2)C2=C(C1)C(c1cccs1)C(C#N)=C(N)O2 (stereo not given),active: 20 µM
2,COc1ccc(-n2c(Cc3cccn3C)nnc2SCC(=O)Nc2ccc(C(C)=O)cc2)cc1,active: 8.91 µM
3,COc1ccccc1NS(=O)(=O)c1cc(NC(=O)C(C)C)ccc1N1CCCCC1,active: 9.46 µM
4,COC(=O)c1sccc1NC(=O)c1cc(C)on1,inactive
5,COc1ccc(C(Nc2ccccn2)c2oc(CO)cc(=O)c2O)cc1 (stereo not given),"inconclusive [inhibitor, single point]"
6,Cc1cc(C)c(OCC(=O)Nc2ccccn2)c([N+](=O)[O-])c1,inactive
7,C/C(=N\NC(=O)COc1ccc(C#N)cc1)c1ccccc1OC(F)F,inactive
8,CC(C)CNC(=O)c1cc(-c2ccc(Cl)c(Cl)c2)on1,inactive
9,CCOC(=O)C1=C(CN2CCc3ccccc32)NC(=O)NC1c1ccc(Cl)cc1 (stereo not given),active: 25.1 µM
10,O=c1c2c(nc3cc(-c4ccccc4)[nH]n13)CCC2,"inconclusive [inhibitor, partial curve]"
11,O=C1COc2ccc(C(=O)CCl)cc2N1,active: 0.112 µM
12,Cc1nn(C(=O)c2ccoc2C)c(N)c1-c1ccccc1,inactive
13,COc1cccc(C(=O)NC(=S)Nc2nnn(C)n2)c1,active: 22.4 µM
14,CCCCc1cc(=O)oc2cc(OCC(=O)N3CCc4ccccc43)ccc12,"inconclusive [inhibitor, partial curve]"
15,CCCS(=O)(=O)c1c(S(=O)(=O)CCC)c2ccc(C(C)=O)cn2c1C(=O)OC,"inconclusive [inhibitor, single point]"
16,Cc1ccc(C(=O)C2Oc3ccccc3C3CC(c4ccc(C)cc4)=NN23)cc1 (stereo not given),"inconclusive [inhibitor, single point]"
17,COc1ccc(-c2oc3ncn4nc(Cc5ccccc5)nc4c3c2-c2ccc(OC)cc2)cc1,"inconclusive [inhibitor, partial curve]"
18,CC1CCN(C(C(=O)Nc2ccc3c(c2)OCO3)c2ccccc2)CC1 (stereo not given),"inconclusive [inhibitor, single point]"
19,Cn1c(=O)c2cc(S(=O)(=O)N3CCOCC3)ccc2n(C)c1=O,inactive
20,COc1cc(/C=C(\C#N)c2nc3ccccc3[nH]2)cc(Br)c1OCc1ccccc1,"inconclusive [inhibitor, single point]"
21,O=C(c1ccccc1)c1cc2c(cc1[N+](=O)[O-])OCCO2,"inconclusive [inhibitor, single point]"
22,CCC1=C2CC[C@H]3C(=O)NC(=O)[C@H]3[C@H]2[C@@]2(Cc3ccccc3)C(=NCc3ccccc3)OC(=O)N2C1=O,inactive
23,O=[N+]([O-])c1cccc(-c2cc3cccc[n+]3cc2-c2cccc([N+](=O)[O-])c2)c1,inactive
24,Clc1cc2c(c(CSc3nc4ccccc4n4cccc34)c1)OCOC2,inactive
25,CCOC(=O)Cc1csc(NC(=O)NC2(C(F)(F)F)Oc3ccccc3O2)n1,inactive
